Experimental data as given in the supplement of paper PMC8728848.
The other results are listed elsewhere or left out.

What was measured:
Experiment in all cases: glycan array binding signal (z-score within array); higher = stronger binding
Settings in all cases: glycan notation: IUPAC condensed, linker removed
[1] = molecular target: GlcNAc(b1-2)Gal(b1-3)GalNAc
Method in brief: (§1)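 The Consortium for Functional Glycomics database supplied 3228 glycan arrays, of which those lacking an available protein sequence were dropped. The binding signal, a within-array Z-score, was averaged across arrays of the same protein sequence and across linkers. Negative scores can be read as non-binding.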

[2] = molecular target: GlcNAc(b1-2)Man(a1-3)[GlcNAc(b1-2)Man(a1-6)]Man(b1-4)GlcNAc(b1-4)GlcNAc
Method in brief: as §1

[3] = molecular target: GlcNAc(b1-2)Man(a1-3)[GlcNAc(b1-2)Man(a1-6)]Man(b1-4)GlcNAc(b1-4)[Fuc(a1-6)]GlcNAc
Method in brief: as §1

[4] = molecular target: GlcNAc(b1-2)Man(a1-3)[GlcNAc(b1-4)][GlcNAc(b1-2)Man(a1-6)]Man(b1-4)GlcNAc(b1-4)GlcNAc
Method in brief: as §1

[5] = molecular target: GlcNAc(b1-2)Man(a1-3)[GlcNAc(b1-4)][GlcNAc(b1-2)Man(a1-6)]Man(b1-4)GlcNAc(b1-4)[Fuc(a1-6)]GlcNAc
Method in brief: as §1

[6] = molecular target: GlcNAc(b1-2)[GlcNAc(b1-4)]Man(a1-3)[GlcNAc(b1-2)Man(a1-6)]Man(b1-4)GlcNAc(b1-4)GlcNAc
Method in brief: as §1

[7] = molecular target: GlcNAc(b1-2)[GlcNAc(b1-4)]Man(a1-3)[GlcNAc(b1-4)][GlcNAc(b1-2)Man(a1-6)]Man(b1-4)GlcNAc(b1-4)GlcNAc
Method in brief: as §1

[8] = molecular target: GlcNAc(b1-2)[GlcNAc(b1-4)]Man(a1-3)[GlcNAc(b1-4)][GlcNAc(b1-2)[GlcNAc(b1-6)]Man(a1-6)]Man(b1-4)GlcNAc(b1-4)GlcNAc
Method in brief: as §1

[9] = molecular target: GlcNAc(b1-2)[GlcNAc(b1-4)]Man(a1-3)[GlcNAc(b1-4)][GlcNAc(b1-2)[GlcNAc(b1-6)]Man(a1-6)]Man(b1-4)GlcNAc(b1-4)[Fuc(a1-6)]GlcNAc
Method in brief: as §1

[10] = molecular target: GlcNAc(b1-2)[GlcNAc(b1-6)]Man(a1-6)[GlcNAc(b1-2)Man(a1-3)]Man(b1-4)GlcNAc(b1-4)GlcNAc
Method in brief: as §1

[11] = molecular target: GlcNAc(b1-2)[GlcNAc(b1-6)]Man(a1-6)[GlcNAc(b1-2)Man(a1-3)]Man(b1-4)GlcNAc(b1-4)[Fuc(a1-6)]GlcNAc
Method in brief: as §1

[12] = molecular target: GlcNAc(b1-2)[GlcNAc(b1-6)]Man(a1-6)[GlcNAc(b1-4)][GlcNAc(b1-2)Man(a1-3)]Man(b1-4)GlcNAc(b1-4)GlcNAc
Method in brief: as §1

GlcNAc(b1-3)Fuc = molecular target: GlcNAc(b1-3)Fuc
Method in brief: as §1

GlcNAc(b1-3)Gal = molecular target: GlcNAc(b1-3)Gal
Method in brief: as §1

[13] = molecular target: GlcNAc(b1-3)Gal(b1-3)GalNAc
Method in brief: as §1

GlcNAc(b1-3)Gal(b1-4)Glc = molecular target: GlcNAc(b1-3)Gal(b1-4)Glc
Method in brief: as §1

[14] = molecular target: GlcNAc(b1-3)Gal(b1-4)GlcNAc
Method in brief: as §1

[15] = molecular target: GlcNAc(b1-3)Gal(b1-4)GlcNAc(b1-2)Man(a1-3)[GlcNAc(b1-3)Gal(b1-4)GlcNAc(b1-2)Man(a1-6)]Man(b1-4)GlcNAc(b1-4)GlcNAc
Method in brief: as §1

[16] = molecular target: GlcNAc(b1-3)Gal(b1-4)GlcNAc(b1-2)Man(a1-3)[GlcNAc(b1-3)Gal(b1-4)GlcNAc(b1-2)Man(a1-6)]Man(b1-4)GlcNAc(b1-4)[Fuc(a1-6)]GlcNAc
Method in brief: as §1

[17] = molecular target: GlcNAc(b1-3)Gal(b1-4)GlcNAc(b1-2)[GlcNAc(b1-3)Gal(b1-4)GlcNAc(b1-6)]Man(a1-6)[GlcNAc(b1-3)Gal(b1-4)GlcNAc(b1-2)Man(a1-3)]Man(b1-4)GlcNAc(b1-4)GlcNAc
Method in brief: as §1

[18] = molecular target: GlcNAc(b1-3)Gal(b1-4)GlcNAc(b1-3)Gal(b1-4)GlcNAc
Method in brief: as §1

[19] = molecular target: GlcNAc(b1-3)Gal(b1-4)GlcNAc(b1-3)Gal(b1-4)GlcNAc(b1-2)Man(a1-3)[GlcNAc(b1-3)Gal(b1-4)GlcNAc(b1-3)Gal(b1-4)GlcNAc(b1-2)Man(a1-6)]Man(b1-4)GlcNAc(b1-4)GlcNAc
Method in brief: as §1

[20] = molecular target: GlcNAc(b1-3)Gal(b1-4)GlcNAc(b1-3)Gal(b1-4)GlcNAc(b1-2)Man(a1-3)[GlcNAc(b1-3)Gal(b1-4)GlcNAc(b1-3)Gal(b1-4)GlcNAc(b1-2)Man(a1-6)]Man(b1-4)GlcNAc(b1-4)[Fuc(a1-6)]GlcNAc
Method in brief: as §1

[21] = molecular target: GlcNAc(b1-3)Gal(b1-4)GlcNAc(b1-3)Gal(b1-4)GlcNAc(b1-2)[GlcNAc(b1-3)Gal(b1-4)GlcNAc(b1-3)Gal(b1-4)GlcNAc(b1-6)]Man(a1-6)[GlcNAc(b1-3)Gal(b1-4)GlcNAc(b1-3)Gal(b1-4)GlcNAc(b1-2)Man(a1-3)]Man(b1-4)GlcNAc(b1-4)[Fuc(a1-6)]GlcNAc
Method in brief: as §1

[22] = molecular target: GlcNAc(b1-3)Gal(b1-4)GlcNAc(b1-3)Gal(b1-4)GlcNAc(b1-3)Gal(b1-4)GlcNAc(b1-2)Man(a1-3)[GlcNAc(b1-3)Gal(b1-4)GlcNAc(b1-3)Gal(b1-4)GlcNAc(b1-3)Gal(b1-4)GlcNAc(b1-2)Man(a1-6)]Man(b1-4)GlcNAc(b1-4)GlcNAc
Method in brief: as §1

[23] = molecular target: GlcNAc(b1-3)Gal(b1-4)GlcNAc(b1-3)Gal(b1-4)GlcNAc(b1-3)Gal(b1-4)GlcNAc(b1-2)Man(a1-3)[GlcNAc(b1-3)Gal(b1-4)GlcNAc(b1-3)Gal(b1-4)GlcNAc(b1-3)Gal(b1-4)GlcNAc(b1-2)Man(a1-6)]Man(b1-4)GlcNAc(b1-4)[Fuc(a1-6)]GlcNAc
Method in brief: as §1

[24] = molecular target: GlcNAc(b1-3)Gal(b1-4)GlcNAc(b1-3)Gal(b1-4)GlcNAc(b1-3)Gal(b1-4)GlcNAc(b1-2)[GlcNAc(b1-3)Gal(b1-4)GlcNAc(b1-3)Gal(b1-4)GlcNAc(b1-3)Gal(b1-4)GlcNAc(b1-6)]Man(a1-6)[GlcNAc(b1-3)Gal(b1-4)GlcNAc(b1-3)Gal(b1-4)GlcNAc(b1-3)Gal(b1-4)GlcNAc(b1-2)Man(a1-3)]Man(b1-4)GlcNAc(b1-4)[Fuc(a1-6)]GlcNAc
Method in brief: as §1

[25] = molecular target: GlcNAc(b1-3)Gal(b1-4)GlcNAc(b1-3)Gal(b1-4)GlcNAc(b1-3)Gal(b1-4)GlcNAc(b1-3)Gal(b1-4)GlcNAc(b1-2)Man(a1-3)[GlcNAc(b1-3)Gal(b1-4)GlcNAc(b1-3)Gal(b1-4)GlcNAc(b1-3)Gal(b1-4)GlcNAc(b1-3)Gal(b1-4)GlcNAc(b1-2)Man(a1-6)]Man(b1-4)GlcNAc(b1-4)GlcNAc
Method in brief: as §1

[26] = molecular target: GlcNAc(b1-3)Gal(b1-4)GlcNAc(b1-3)Gal(b1-4)GlcNAc(b1-3)Gal(b1-4)GlcNAc(b1-3)Gal(b1-4)GlcNAc(b1-2)Man(a1-3)[GlcNAc(b1-3)Gal(b1-4)GlcNAc(b1-3)Gal(b1-4)GlcNAc(b1-3)Gal(b1-4)GlcNAc(b1-3)Gal(b1-4)GlcNAc(b1-2)Man(a1-6)]Man(b1-4)GlcNAc(b1-4)[Fuc(a1-6)]GlcNAc
Method in brief: as §1

[27] = molecular target: GlcNAc(b1-3)Gal(b1-4)GlcNAc(b1-3)Gal(b1-4)GlcNAc(b1-3)Gal(b1-4)GlcNAc(b1-3)Gal(b1-4)GlcNAc(b1-2)[GlcNAc(b1-3)Gal(b1-4)GlcNAc(b1-3)Gal(b1-4)GlcNAc(b1-3)Gal(b1-4)GlcNAc(b1-3)Gal(b1-4)GlcNAc(b1-6)]Man(a1-6)[GlcNAc(b1-3)Gal(b1-4)GlcNAc(b1-3)Gal(b1-4)GlcNAc(b1-3)Gal(b1-4)GlcNAc(b1-3)Gal(b1-4)GlcNAc(b1-2)Man(a1-3)]Man(b1-4)GlcNAc(b1-4)[Fuc(a1-6)]GlcNAc
Method in brief: as §1

[28] = molecular target: GlcNAc(b1-3)Gal(b1-4)GlcNAc(b1-3)Gal(b1-4)GlcNAc(b1-3)GalNAc
Method in brief: as §1

[29] = molecular target: GlcNAc(b1-3)Gal(b1-4)GlcNAc(b1-3)GalNAc
Method in brief: as §1

[30] = molecular target: GlcNAc(b1-3)Gal(b1-4)GlcNAc(b1-3)[GlcNAc(b1-3)Gal(b1-4)GlcNAc(b1-3)]GalNAc
Method in brief: as §1

[31] = molecular target: GlcNAc(b1-3)Gal(b1-4)GlcNAc(b1-6)[Gal(b1-3)]GalNAc
Method in brief: as §1

[32] = molecular target: GlcNAc(b1-3)Gal(b1-4)GlcNAc(b1-6)[GlcNAc(b1-3)Gal(b1-3)]GalNAc
Method in brief: as §1

[33] = molecular target: GlcNAc(b1-3)Gal(b1-4)GlcNAc(b1-6)[GlcNAc(b1-3)]Gal(b1-4)GlcNAc
Method in brief: as §1

GlcNAc(b1-3)GalNAc = molecular target: GlcNAc(b1-3)GalNAc
Method in brief: as §1

B1: Cohesin-hDECTIN-1 (Homo sapiens) (protein)
chain: LDITSHHHHHHDDLDAVRIKVDTVNAKPGDTVRIPVRFSGIPSKGIANCDFVYSYDPNVLEIIEIEPGDIIVDPNPDKSFDTAVYPDRKIIVFLFAEDSGTGAYAITKDGVFATIVAKVKEGAPNGLSVIKFVEVGGFANNDLVEQKTQFFDGGVNVGDTTEPATPTTPVTTPTTTDDLDAASSSPCPPNWIIYEKSCYLFSMSLNSWDGSKRQCWQLGSNLLKIDSSNELGFIVKQVSSQPDNSFWIGLSRPQTEVPWLWEDGSTFSSNLFQIRTTATQENPSPNCVWIHVSVIYDQLCSVPSYSICEKKFM
- glycan array binding signal (z-score) [1]: -0.185
- glycan array binding signal (z-score) [2]: -0.418
- glycan array binding signal (z-score) [3]: -0.032
- glycan array binding signal (z-score) [4]: -0.224
- glycan array binding signal (z-score) [5]: -0.239
- glycan array binding signal (z-score) [6]: -0.267
- glycan array binding signal (z-score) [7]: -0.311
- glycan array binding signal (z-score) [8]: -0.117
- glycan array binding signal (z-score) [9]: -0.586
- glycan array binding signal (z-score) [10]: -0.373
- glycan array binding signal (z-score) [11]: -0.174
- glycan array binding signal (z-score) [12]: -0.546
- glycan array binding signal (z-score) (GlcNAc(b1-3)Fuc): -0.594
- glycan array binding signal (z-score) (GlcNAc(b1-3)Gal): -0.42
- glycan array binding signal (z-score) [13]: -0.12
- glycan array binding signal (z-score) (GlcNAc(b1-3)Gal(b1-4)Glc): -0.428
- glycan array binding signal (z-score) [14]: -0.441
- glycan array binding signal (z-score) [15]: -0.421
- glycan array binding signal (z-score) [16]: -0.212
- glycan array binding signal (z-score) [17]: -0.124
- glycan array binding signal (z-score) [18]: -0.185
- glycan array binding signal (z-score) [19]: 0.351
- glycan array binding signal (z-score) [20]: -0.282
- glycan array binding signal (z-score) [21]: -0.434
- glycan array binding signal (z-score) [22]: -0.567
- glycan array binding signal (z-score) [23]: -0.138
- glycan array binding signal (z-score) [24]: -0.474
- glycan array binding signal (z-score) [25]: 0.599
- glycan array binding signal (z-score) [26]: 0.226
- glycan array binding signal (z-score) [27]: -0.496
- glycan array binding signal (z-score) [28]: -0.574
- glycan array binding signal (z-score) [29]: -0.397
- glycan array binding signal (z-score) [30]: -0.531
- glycan array binding signal (z-score) [31]: -0.318
- glycan array binding signal (z-score) [32]: -0.198
- glycan array binding signal (z-score) [33]: -0.293
- glycan array binding signal (z-score) (GlcNAc(b1-3)GalNAc): -0.493
